From PubChem BioAssay AID463173 (ICCB-Longwood Screening Facility, Harvard Medical School, 2010) come the findings set out here.

About 1,700 (3.3%) of roughly 52,000 compounds were called active. Cut-off read from the data, not from the text of the source: active = survival mostly below about 52% (no sharp cut-off); inactive = mostly above about 56%. Some of the results follow.

The subject of this experiment is Wild type. The experiment in a line: growth inhibition of S. aureus wild type versus tarO mutant, primary screen, teichoic acid synthesis inhibitors, RN4220, OD600 (AID 463173). The following applies: S. aureus RN4220 wild type/DeltatarO growth, OD600, 18 h, hits give low values, screened at 18.75 µg/mL (by protocol).
With `Cc1ccc(-c2nn(CO)c(=S)o2)cc1`, the survival is inactive: 91%.

With `CCCN1CCN(C(=O)Cn2ncc3c4ccccc4n(Cc4cccc(Cl)c4)c3c2=O)CC1`, the survival was inactive: 80%.

Regarding `CC1CC(=O)N(CC(=O)Nc2ccc(OC(F)(F)F)cc2)c2ccccc2S1` (centres undefined), the survival was inactive: 89%. Turning to `CCOc1ccc(-n2nc3ccc(NC(=O)c4ccc(C)cc4C)cc3n2)cc1`, the survival was inactive: 95%. Under `Cc1ccc(CCNC(=O)c2cc3cc(S(=O)(=O)N4CCCCC4)ccc3n2C)cc1` stands inactive: 72%; under `Cc1cccc(N(C)C(=O)c2cc3c(=O)oc4ccc(C)cc4c3s2)c1`, inactive: 120%; under `COC(=O)c1ccc(C(=O)OC)c(NC(=O)c2cnn3c(C(F)F)cc(-c4ccc(C)cc4)nc23)c1`, inactive: 73%. For the compound `CCN1CCOC(=O)C1CC(=O)Nc1cc(Cl)ccc1C` (centres undefined), the survival was inactive: 53%. As for `CCN1CCN(CCCNC(=O)c2cnn(-c3ccc(OC)cc3)c2C2CCN(C(=O)OC(C)(C)C)CC2)CC1`, the survival is inactive: 78%.

Turning to `CCOC(=O)c1cccc(NC(=O)CC2C(=O)N(c3ccc(F)cc3)C(=O)N2Cc2cccc(OC)c2)c1` (centres undefined), the survival was inactive: 74%.

Take `CC1=Nc2cc(C(=O)NC3CCCC3)ccc2Sc2ccc(Cl)cc21`: the survival is inactive: 73%. Under `CCOC(=O)c1ccc(Nc2nc3ccccc3n3c(C)nnc23)cc1` stands inactive: 84%. `CCC(c1nnnn1C1CCCC1)N(Cc1cccs1)Cc1cc2cccc(C)c2[nH]c1=O` (centres undefined): the survival is inactive: 117%. Under `CCOc1ccc(-c2noc(CSc3nnc(Cc4ccccc4)n3-c3ccc(F)cc3)n2)cc1` stands inactive: 65%; under `CCOCCc1nn2c(=O)cc(COC(=O)c3ccccc3NC(=O)CC(C)C)nc2s1`, inactive: 70%.

For the compound `CC(C)CN(CC(C)C)S(=O)(=O)c1ccc(C(=O)Nc2sc3c(c2C(N)=O)CCN(C(C)C)C3)cc1`, the survival was inactive: 80%. Turning to `COc1ccc(N(C)S(=O)(=O)c2ccc3c(c2)n(C)c(=O)c(=O)n3C)cc1`, the survival is inactive: 83%.

On to `COc1cccc(C(=O)Nc2c3c(nn2-c2ccc(C)cc2C)CS(=O)(=O)C3)c1OC`, for which the survival is inactive: 136%. On to `O=C(Cn1c(-c2cccs2)cc2cc(F)ccc21)N1CCCCC1`, for which the survival was inactive: 72%.

On to `Cc1cccc(N2CCN(c3ncnc4c3cnn4-c3ccc(Cl)cc3)CC2C)c1` (centres undefined), for which the survival is inactive: 83%.

`O=C(O)c1cc(-c2ccccc2)on1`: the survival is inactive: 100%. For the compound `COC(=O)c1scc(-c2ccc(C)cc2)c1S(=O)(=O)N1CCN(c2ccccc2F)CC1`, the survival was inactive: 133%.

As to `O=c1c2ccccc2nc(-c2ccccc2)n1CCCn1ccnc1`, the survival is inactive: 113%. On to `COc1ccc(CNC(=O)Cn2ncc3c(=O)oc4ccc(C)cc4c32)c(OC)c1`, for which the survival is inactive: 113%.
